For assay [1], the target named is HA-tagged YAP (wild type), P46937. The experiment in a line: co-IP; HA-tagged YAP or TAZ derivatives co-expressed with FLAG-tagged STAT3 or JUNB in 293T cells for 2 days; IP with anti-HA antibody or control IgG, Dynabead protein G; co-IP buffer 50 mM Tris pH 7.5, 100 mM NaCl, 1.5 mM EGTA, 0.1% Triton X-100; 4°C overnight. As to conditions: remark: other sources report otherwise.

Amino acid sequences for entries named in this document (tags omitted).
UniProt P46937: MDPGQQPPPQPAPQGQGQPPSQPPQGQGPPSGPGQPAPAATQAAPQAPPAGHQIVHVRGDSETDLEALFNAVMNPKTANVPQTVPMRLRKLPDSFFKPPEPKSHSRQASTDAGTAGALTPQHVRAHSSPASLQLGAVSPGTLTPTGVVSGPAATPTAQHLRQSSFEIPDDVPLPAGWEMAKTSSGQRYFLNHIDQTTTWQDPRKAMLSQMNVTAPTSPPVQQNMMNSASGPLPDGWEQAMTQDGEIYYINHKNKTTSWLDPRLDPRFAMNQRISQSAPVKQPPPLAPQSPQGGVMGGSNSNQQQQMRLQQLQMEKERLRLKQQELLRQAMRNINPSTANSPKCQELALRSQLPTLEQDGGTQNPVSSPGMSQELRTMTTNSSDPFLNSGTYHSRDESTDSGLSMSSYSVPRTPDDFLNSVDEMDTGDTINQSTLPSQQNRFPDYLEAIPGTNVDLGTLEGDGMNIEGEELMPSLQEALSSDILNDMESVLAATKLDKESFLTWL
UniProt Q9GZV5: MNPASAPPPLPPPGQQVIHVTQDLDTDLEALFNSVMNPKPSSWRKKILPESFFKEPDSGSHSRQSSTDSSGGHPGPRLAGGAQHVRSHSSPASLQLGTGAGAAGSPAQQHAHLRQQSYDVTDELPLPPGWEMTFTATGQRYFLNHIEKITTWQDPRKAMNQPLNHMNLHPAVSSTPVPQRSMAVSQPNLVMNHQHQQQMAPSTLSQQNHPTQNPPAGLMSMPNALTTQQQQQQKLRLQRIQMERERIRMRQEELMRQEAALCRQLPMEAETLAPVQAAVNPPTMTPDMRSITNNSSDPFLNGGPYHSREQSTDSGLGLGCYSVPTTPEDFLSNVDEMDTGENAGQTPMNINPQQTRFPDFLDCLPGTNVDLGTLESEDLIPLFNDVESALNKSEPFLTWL

The target of assay [2] is HA-tagged TAZ (wild type) (UniProt Q9GZV5). The assay is described as above.
The target in assay [3] is His-tagged recombinant YAP, P46937. Kind of assay: co-IP; in vitro, pairs of E. coli-generated His-tagged recombinant proteins; co-IP procedure similar to that for lysates; western blot of input (10%) and IP; both purified. The note with it: remark: other sources report otherwise. In general terms: Immunoblotting shows a protein as a band on a membrane.
For assay [4], the target named is His-tagged recombinant TAZ (UniProt Q9GZV5). The assay is described as above.
For assay [5], the target named is TAZ (human (endogenous in MCF-10A-ER-Src)) (UniProt Q9GZV5). The experiment in a line: co-IP; endogenous proteins in nucleoplasm and chromatin fractions of non-transformed (ethanol) and transformed (tamoxifen) MCF-10A-ER-Src cells; antibodies against the indicated proteins or IgG control, Dynabead protein G; co-IP buffer 50 mM Tris pH 7.5, 100 mM NaCl, 1.5 mM EGTA, 0.1% Triton X-100; 4°C overnight; co-IP in general more efficient in transformed cells.

In assay [6] the target is YAP (human (endogenous in MCF-10A-ER-Src)) (UniProt P46937). Kind of assay: co-IP; endogenous proteins in the cytoplasm fraction of non-transformed (ethanol) and transformed (tamoxifen) MCF-10A-ER-Src cells; antibodies against the indicated proteins or IgG control, Dynabead protein G; co-IP buffer 50 mM Tris pH 7.5, 100 mM NaCl, 1.5 mM EGTA, 0.1% Triton X-100; 4°C ….
Assay [7] deals with TAZ (human (endogenous in MCF-10A-ER-Src)) (UniProt Q9GZV5). Described as above.
For assay [8], the target named is YAP (human (endogenous in MCF-10A-ER-Src)), P46937. Kind of assay: co-IP; endogenous proteins in nucleoplasm and chromatin fractions of non-transformed (ethanol) and transformed (tamoxifen) MCF-10A-ER-Src cells; antibodies against the indicated proteins or IgG control, Dynabead protein G; co-IP buffer 50 mM Tris pH 7.5, 100 mM NaCl, 1.5 mM EGTA, 0.1% Triton X-100; 4°C overnight; co-IP in general more efficient in transformed cells. As to conditions: remark: other sources report otherwise.

No constants are given. Whether binding was seen depends on the method and setting. For some assays here: In cells and extracts the contact can be indirect. Some entries that bind do so weakly or less than the wild type. For some assays here: Tags and fused reporters may be left off the sequences shown.

B1: FLAG-tagged JUNB, P17275 1-347 (protein)
chain: MCTKMEQPFYHDDSYTATGYGRAPGGLSLHDYKLLKPSLAVNLADPYRSLKAPGARGPGPEGGGGGSYFSGQGSDTGASLKLASSELERLIVPNSNGVITTTPTPPGQYFYPRGGGSGGGAGGAGGGVTEEQEGFADGFVKALDDLHKMNHVTPPNVSLGATGGPPAGPGGVYAGPEPPPVYTNLSSYSPASASSGGAGAAVGTGSSYPTTTISYLPHAPPFAGGHPAQLGLGRGASTFKEEPQTVPEARSRDATPPVSPINMEDQERIKVERKRLRNRLAATKCRKRKLERIARLEDKVKTLKAENAGLSSTAGLLREQVAQLKQKVMTHVSNGCQLLLGVKGHAF
On to B1, for which the binding entry in assay [1] is “binds”.

B2: FLAG-tagged JUNB (protein, UniProt P17275 1-347)
chain: B1 chain
For the molecule B2, the binding entry in assay [2] is recorded as “binds”.

B3: His-tagged recombinant JUNB, P17275 1-347 (protein)
chain: B1 chain
Regarding B3, the binding entry in assay [3] is “binds”.

B4: His-tagged recombinant JUNB (protein, UniProt P17275 1-347)
chain: B1 chain
Turning to B4, in assay [4], the binding entry was “binds”.

B5: JUNB (protein, UniProt P17275 1-347)
chain: B1 chain
As to B5, the binding entry in assay [5] is recorded as “binds”; in assay [6], “no binding (condition: cytoplasm fraction)”; in assay [7] it was “no binding (condition: cytoplasm fraction)”.

B6: JUNB, P17275 1-347 (protein)
chain: B1 chain
For the molecule B6, the binding entry in assay [8] is “binds”.

For the origin of these results see publication PMC8463077.
